In paper PMC4336329 (PLoS ONE, 2015):
About 14,000 (4.5%) of roughly 310,000 compounds showed an effect of 50% or more. The effect is printed as a negative number. The list shows a part of the results.

Target: human ether-à-go-go-related gene (hERG) potassium channel (human, UniProt Q12809)
Assay: primary screen, population patch clamp on CHO cells stably expressing hERG
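Note: peak tail current of the secondary pulse compared with the same well before compound.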

Sequence of human ether-à-go-go-related gene (hERG) potassium channel (Q12809 whole entry, looked up): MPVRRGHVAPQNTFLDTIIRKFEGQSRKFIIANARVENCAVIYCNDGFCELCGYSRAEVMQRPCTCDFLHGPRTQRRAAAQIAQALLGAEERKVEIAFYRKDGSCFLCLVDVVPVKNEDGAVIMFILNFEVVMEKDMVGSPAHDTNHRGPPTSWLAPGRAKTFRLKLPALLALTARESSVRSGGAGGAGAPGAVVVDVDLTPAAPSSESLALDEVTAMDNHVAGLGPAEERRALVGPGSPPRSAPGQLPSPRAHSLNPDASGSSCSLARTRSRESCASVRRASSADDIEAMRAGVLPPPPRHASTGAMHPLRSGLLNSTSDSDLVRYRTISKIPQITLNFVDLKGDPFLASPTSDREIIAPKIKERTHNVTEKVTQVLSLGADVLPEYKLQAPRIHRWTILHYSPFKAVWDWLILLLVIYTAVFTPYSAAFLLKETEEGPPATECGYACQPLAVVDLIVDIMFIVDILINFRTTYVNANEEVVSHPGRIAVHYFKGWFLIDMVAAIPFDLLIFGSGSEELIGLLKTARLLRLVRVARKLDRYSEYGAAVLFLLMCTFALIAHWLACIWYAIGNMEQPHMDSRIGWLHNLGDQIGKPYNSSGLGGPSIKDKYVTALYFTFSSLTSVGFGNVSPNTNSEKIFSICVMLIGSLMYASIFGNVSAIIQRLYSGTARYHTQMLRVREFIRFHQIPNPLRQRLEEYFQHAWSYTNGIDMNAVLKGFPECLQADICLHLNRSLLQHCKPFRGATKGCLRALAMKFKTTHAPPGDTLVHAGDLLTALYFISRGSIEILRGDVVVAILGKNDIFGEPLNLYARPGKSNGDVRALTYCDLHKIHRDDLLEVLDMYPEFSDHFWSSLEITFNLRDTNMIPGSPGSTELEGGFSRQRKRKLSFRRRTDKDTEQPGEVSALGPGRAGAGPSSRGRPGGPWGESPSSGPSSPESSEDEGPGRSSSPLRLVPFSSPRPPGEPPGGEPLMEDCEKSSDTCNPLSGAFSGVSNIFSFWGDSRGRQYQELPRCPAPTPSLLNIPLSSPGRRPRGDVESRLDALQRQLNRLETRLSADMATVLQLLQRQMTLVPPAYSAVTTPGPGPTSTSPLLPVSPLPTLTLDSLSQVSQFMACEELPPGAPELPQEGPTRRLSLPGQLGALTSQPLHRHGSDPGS

Compound | hERG current change (%, negative = inhibition) at 10uM
Cc1cccc(NC(=O)Cc2noc3ccccc23)c1 | -5.99%
O=C(NCC1(O)CCCCC1)C1CCC(=O)N(Cc2cccc(C(F)(F)F)c2)C1 (stereo not drawn) | -4.88%
CC(C(=O)NCCc1nc2ccccc2[nH]1)n1cc([N+](=O)[O-])cn1 (stereo not drawn) | 12.6%
COC(=O)Cn1c(=NC(=O)CSCC(=O)NC2CCCCC2)sc2cc(OC)ccc21 | 1.61%
O=C1CCC(C(=O)Nc2ccccc2N2CCCC2)=NN1 | -38.9%
S=C(Nc1ccc(Cl)cc1Cl)N1CCN(c2ccccn2)CC1 | 17.5%
CC(C)C(=O)NC(=S)Nc1ccccc1C(F)(F)F | 10.4%
CC(C)OC(=O)c1cc(=O)[nH]c2ccccc12 | 5.48%
CCOP(=O)(OCC)C(Nc1ccc(C(=O)O)cc1)c1ccccc1 (stereo not drawn) | 33.4%
Cc1ccc(NC(=O)CNC(=O)CC23CC4CC(CC(C4)C2)C3)c(O)c1 | 7.8%
COc1ccc(CN2C(=O)C(Cc3ccccc3)Nc3ncnc(N4CCN(c5ccccc5)CC4)c32)cc1.O=C(O)C(F)(F)F (stereo not drawn) | 9.01%
Cc1cc(NC(=O)COC(=O)C2CC(=O)N(c3ccccc3)C2)no1 (stereo not drawn) | 12.2%
COc1ccccc1N(CCC#N)C(=O)CSc1ccc2c(c1)OCCO2 | -17.9%
CCn1c(C(=O)N2CCC(C(=O)NCc3ccc(OC)cc3)CC2)cc2sccc21 | -41.9%
Cn1c(SCCN2CCOCC2)nc2sc3c(c2c1=O)CCCC3 | -0.959%
O=C(Nc1ccc(Cl)cc1)c1ccc2snnc2c1 | 4.11%
COc1ccccc1NC(=O)Nc1ccc(C(=O)N2CCCCC2)cc1 | -5.42%
O=c1[nH]c(=O)n(CCc2ccc(F)cc2)c(O)c1/C=N/N1CCCCC1 | 12.3%
O=C(O)COc1ccccc1/C=N/NC(=O)c1ccc(F)cc1 | 4.02%

Compound | hERG current change (%, negative = inhibition) at 10uM
Oc1ccc(/C=N/NC(=S)Nc2cccnc2)cc1 | 10.2%
N#C/C(=C\c1cccs1)C(=O)N1CCOCC1 | 17.1%
O=C(NCc1cccnc1)C(=O)NCC1OCCCN1S(=O)(=O)c1ccc(Cl)cc1 (stereo not drawn) | -2.01%
O=C(CSc1ccc2ccccc2n1)Nc1nsc(-c2ccc(Cl)cc2)n1 | -9.81%
O=C(O)c1cccc(O)c1O | 8.15%
CCOC(=O)C1=NN(c2ccc(C)cc2)C2(S1)SC(C(C)=O)=C(C)N2c1ccccc1 (stereo not drawn) | 12.5%
Cc1onc(-c2ccccc2)c1CNS(=O)(=O)c1cccc(Br)c1 | -0.969%
Cc1ccc(C)c(S(=O)(=O)NCC(=O)Nc2sc3c(c2C(N)=O)CCC(C)C3)c1 (stereo not drawn) | 17.7%
Cc1cc(C)c(C(=O)COC(=O)C2CCN(c3ccc(C(F)(F)F)cn3)CC2)c(C)c1 | 8.61%
O=C(c1ccc(Cl)cc1)C1CCCN(Cc2ccc3c(c2)OCCO3)C1 (stereo not drawn) | -73.5%
Cc1ccn(C)c(=N)c1 | 23.1%
COCCNC(=O)CSc1nc2ccc(N3CCOCC3)cc2c(=O)n1Cc1ccc(OC)cc1 | -22.4%
CCC(C)(C)NC(=O)C(c1ccc(F)cc1)N(Cc1cccc(OC)c1)C(=O)c1cnccn1 (stereo not drawn) | 9.72%
COc1ccccc1OCC(=O)NCc1ccco1 | -12.1%
C#CCNc1c2c(nc3ncnn13)CC(C)CC2 (stereo not drawn) | -10.7%
CCN1CCN(C(=S)Nc2ccc(Cl)cc2Cl)CC1 | 7.51%
Cc1ccccc1S(=O)Cc1ccc(C(=O)NC2CC2)o1 (stereo not drawn) | 1.8%
COc1cc(C(=O)NCC(c2cccnc2)N2CCN(C)CC2)cc(OC)c1OC (stereo not drawn) | 12.9%
NC(=O)CC(NC(=O)c1ccccc1)c1ccc(NC2CCCC2)c([N+](=O)[O-])c1 (stereo not drawn) | 5.39%

Compound | hERG current change (%, negative = inhibition) at 10uM
COC(=O)CN1C(=O)COc2ccc(S(=O)(=O)N3CCCC3)cc21 | 9.73%
Cc1c(C=C2C(=O)c3ccccc3C2=O)cc(C#N)n1C | 4.72%
COc1ccc(/C=N/NC(=O)c2c([N+](=O)[O-])c(C)nn2C)cc1 | 15.1%
CCOC(Cn1c(SCC(=O)Nc2cc(C)on2)nc2ccccc2c1=O)OCC | 7.63%
CC(C)c1ccc(NC(=O)C2CCN(S(=O)(=O)c3ccc4c(c3)NC(=O)CO4)CC2)cc1 | 15.9%
N#C/C(=C\c1c(N2CCCCC2)nc2ccccn2c1=O)C(=O)NC1CCS(=O)(=O)C1 (stereo not drawn) | -15%
Cc1ccccc1NC(=O)CSC1=C(C#N)C(c2ccsc2)CC(=O)N1 (stereo not drawn) | -2.24%
COc1ccc(C)cc1NC(=O)CNC(c1ccccc1)c1ccc(C)cc1 (stereo not drawn) | 12.7%
Cc1cc(/C=N/NC(N)=O)c(C)c(CO)c1 | 15.8%
O=C(NC(=S)Nc1ccc(CN2CCCCC2)cc1)c1cc2ccccc2o1 | -24.3%
Cn1c2c(c(=O)n(C)c1=O)CN(Cc1ccc3c(c1)OCO3)CN2 | -4.04%
CCN(Cc1ccccc1)Cc1ccc(OCc2ccccc2)cc1.O=C(O)C(=O)O | 13.7%
O=C(CSc1nc(O)c(C(c2ccccc2)c2ccccc2)c(=O)[nH]1)N1CCOCC1 | 5.82%
CC1Cc2ccccc2N1C(=O)CSc1ncccc1C(=O)O (stereo not drawn) | 19.2%
Cl.O=C(/C=C/c1ccccc1)N1CCN(CC(O)COc2ccccc2)CC1 (stereo not drawn) | -69.7%
COc1ccc2cc(C(=O)C3CCCN(C(=O)c4ccnn4C)C3)ccc2c1 (stereo not drawn) | -41.1%
CCNC(=O)C1=C(O)c2sccc2N(C)S1(=O)=O | 24.6%
O=S1(=O)CC=C(CSc2nc3ccccc3[nH]2)C1 | 9.13%
COC(=O)NCc1ccc(Cl)c(Cl)c1 | 5.73%
